{
  "source": "PubChem BioAssay AID588795",
  "about": "(National Center for Advancing Translational Sciences (NCATS), 2011)",
  "note": "“And” between values parts separate entries of the source, which are not always exact repeats. Equal entries are not always repeated. The whole screen tested about 390,000 compounds, of which about 1,400 (0.36%) were called active. This list was built around the results that the source calls inconclusive (neither active nor inactive); the mix of calls is not that of the screen. Calls come from the whole dose curve; as a rule, active = well fitted inhibition curve with a large enough effect; inconclusive = small, poorly fitted or top-dose-only effect; inactive = no such curve, though single readings can be large or run the other way. Potencies beside an inconclusive call are fits to weak or partial responses and may not hold up. Potency is the fitted concentration of half-maximal effect; tags give direction and shape of the fitted curve.",
  "data": [
    {"molecular_target": "Flap endonuclease 1 (Homo sapiens) (UniProt P39748)", "sequence (P39748 whole entry, looked up)": "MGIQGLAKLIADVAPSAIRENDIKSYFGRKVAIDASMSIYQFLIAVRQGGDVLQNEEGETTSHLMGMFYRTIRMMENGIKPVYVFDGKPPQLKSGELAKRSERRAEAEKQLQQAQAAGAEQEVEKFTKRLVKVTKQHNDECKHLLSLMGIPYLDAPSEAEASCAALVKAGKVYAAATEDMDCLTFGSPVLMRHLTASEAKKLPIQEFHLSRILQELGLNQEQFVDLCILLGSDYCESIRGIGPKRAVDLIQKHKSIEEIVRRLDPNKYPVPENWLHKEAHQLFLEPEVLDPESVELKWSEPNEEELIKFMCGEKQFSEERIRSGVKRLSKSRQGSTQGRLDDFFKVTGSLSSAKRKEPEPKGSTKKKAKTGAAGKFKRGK", "test": "qHTS Assay for the Inhibitors of Human Flap endonuclease 1 (FEN1); note: nearly all actives have a fitted effect of over 65% in size.", "conditions": "Recombinant FEN1 flap cleavage, fluorescence, 15 min; series mostly up to 114 µM", "text": "The major human flap endonuclease FEN1 is an efficient structure-specific enzyme that recognizes and cleaves a 5'-unannealed DNA flap. It belongs to the RAD2 family nucleases, which are involved in DNA metabolism and are highly conserved in prokaryotes and eukaryotes. FEN1 is a key enzyme in DNA replication, repair and maintenance of genomic stability. 5'-flap removal by FEN1 is critical for Okazaki fragment processing during lagging strand DNA synthesis, long-patch base excision repair (LP BER), and regulating or facilitating recombination events. […] Deletion of the yeast FEN1 gene, i.e. rad27, results in an increased frequency of short DNA (3-32 bp) repeats, micro- and mini-satellite formation, trinucleotide repeat expansion, spontaneous recombination events, and a severe growth defect in association with cell cycle arrest in late S/G2 phase. […] Cells from fen1-/- blastocysts show increased apoptotic cell death after ionizing radiation treatment, and chicken cells lacking the fen1 gene are hypersensitive to DNA alkylating agents, e.g. methylmethane sulfonate (MMS) and N-methyl-N'-nitro-N-nitrosoguanidine (MNNG), as well as hydrogen peroxide.\nNIH Chemical Genomics Center [NCGC]\nNIH Molecular Libraries Probe Centers Network [MLPCN]\nAssay Submitter (PI): David Wilson, National Institute of Aging\nThree uL of reagents (buffer in column 3 and 4 as negative control and 10 nM FEN1 in columns 1, 2, and 5-48) were dispensed into 1,536-well black solid-bottomed plate. Compounds (23 nL) were transferred via Kalypsys pin tool equipped with 1536-pin array (10 nL slotted pins, V&P Scientific, San Diego, CA). The plates were then incubated for 15 min at room temperature, and 1 uL substrate (50 nM final concentration) were added to start the reaction read twice at 0 min read and 15 min on ViewLux reader. Throughout the screen, reagent bottle and all liquid lines were chilled and made light-tight to minimize reagent degradation. All screening operations were performed on a fully integrated robotic system (Kalypsys, San Diego, CA) containing one RX-130 and two RX-90 anthropomorphic robotic arms (Staubli, Duncan, SC). Library plates were screened starting from the lowest and proceeding to the highest concentration, and a \"double-dipping\" step of the highest concentration was required to access higher concentrations of compounds. Vehicle-only plates, with DMSO being pin-transferred to the entire column 5-48 compound area, were inserted uniformly at the beginning and the end of each library in order to monitor for and record any shifts in the background, which can be affected by reagent dispensers or loss in enzyme activity overtime. Screening data was corrected, normalized, and concentration-effect relationships were derived by using publicly-available curve fitting algorithms developed in-house (http://ncgc.nih.gov/pub/openhts). A four parameter Hill equation was fitted to the concentration-response data by minimizing the residual error between the modeled and observed responses.", "values": [
      {"smiles": "[O-][n+]1c2ccccc2cc2ccccc21", "Potency": "inconclusive: 79.4 µM [inhibitor, partial curve, poor fit]"},
      {"smiles": "COc1ccccc1C(=O)NCCC(=O)Nc1ccc(S(=O)(=O)N2CCC(C)CC2)cc1", "Potency": "inconclusive: 56.2 µM [inhibitor, partial curve, poor fit]"},
      {"smiles": "Cn1c(=O)c([N+](=O)[O-])c(-n2ccnc2)c2ccccc21", "Potency": "inconclusive: 56.2 µM [inhibitor, partial curve, poor fit]"},
      {"smiles": "COc1ccc(C2C=C3CNS(=O)(=O)C3CC2OC(=O)c2ccc(Cl)cc2)cc1", "note": "(stereo unspecified)", "Potency": "inconclusive: 63.1 µM [inhibitor, partial curve, poor fit]"},
      {"smiles": "CCOC(=O)NCc1ccc2[nH]c(C)cc2c1", "Potency": "inconclusive: 22.4 µM [inhibitor, partial curve, poor fit]"},
      {"smiles": "CCN1CCN(c2c(Cl)cccc2NC(=O)c2cc3ccccc3o2)CC1", "Potency": "inconclusive: 50.1 µM [inhibitor, partial curve, poor fit]"},
      {"smiles": "CC(=O)N1CCCc2cc(S(=O)(=O)NCc3ccc(OC(C)C)cc3)ccc21", "Potency": "inactive"},
      {"smiles": "COCC(=O)N(Cc1cc2ccccc2[nH]c1=O)c1ccccc1OC", "Potency": "inactive"},
      {"smiles": "CCCCC(=O)Nc1ccc(OCc2cc(=O)n3ccc(C)cc3n2)cc1", "Potency": "inactive"},
      {"smiles": "CCC(CO)Oc1cc(NCc2cccc(C(F)(F)F)c2)c2ncn(C(C)C)c2c1", "note": "(stereo unspecified)", "Potency": "inconclusive: 39.8 µM [inhibitor, partial curve, poor fit]"},
      {"smiles": "O=C1CCCc2cc3c(ccc4ccccc43)cc21", "Potency": "inconclusive: 79.4 µM [inhibitor, partial curve, poor fit]"},
      {"smiles": "O=C(NCCCCc1ccccc1)C1CC(c2cc(C(F)(F)F)cc(C(F)(F)F)c2)=NO1", "note": "(stereo unspecified)", "Potency": "inconclusive: 56.2 µM [inhibitor, partial curve, poor fit]"},
      {"smiles": "COc1cc2c(NC3CCN(C)CC3)nc(N3CCCN(C)CC3)nc2cc1OCC1CCCNC1", "note": "(stereo unspecified)", "Potency": "active: 20 µM"},
      {"smiles": "O=[N+]([O-])c1cccc(/C=N/Nc2ccccn2)c1", "Potency": "inactive"},
      {"smiles": "C[N+](C)(C)CC(=O)N/N=C/c1c2ccccc2cc2ccccc12", "Potency": "active: 50.1 µM"},
      {"smiles": "CCOC(=O)c1cccc(NC(=O)Nc2cc(OC)ccc2OC)c1", "Potency": "inconclusive: 44.7 µM [inhibitor, partial curve, poor fit]"},
      {"smiles": "CCS(=O)(=O)c1ccc(N=Nc2ccc(O)c3ncccc23)c(OC)c1", "Potency": "inactive"},
      {"smiles": "Cc1ccc(N(CC(O)Cn2c3ccccc3c3ccccc32)S(C)(=O)=O)cc1", "note": "(stereo unspecified)", "Potency": "inconclusive: 56.2 µM [inhibitor, partial curve, poor fit]"},
      {"smiles": "O=C(Nc1ccc2nc(-c3ccco3)c(-c3ccco3)nc2c1)NC1CC1", "Potency": "active: 50.1 µM"},
      {"smiles": "CCOc1ccc(-c2csc(/C(C#N)=C\\c3ccc(O)c([N+](=O)[O-])c3)n2)cc1", "Potency": "active: 79.4 µM"},
      {"smiles": "Cn1c2ccc(F)cc2c2nnc(SCCN3CCCCC3)nc21", "Potency": "inconclusive: 15.8 µM [inhibitor, full curve, poor fit]"},
      {"smiles": "NS(=O)(=O)c1ccc(NC2=CC(=O)C(=O)c3ccccc32)cc1", "Potency": "inactive"},
      {"smiles": "COc1ccccc1C(=O)Nc1ccc(C(=O)Nc2ccccc2C(=O)O)cc1", "Potency": "inconclusive: 79.4 µM [inhibitor, single point]"},
      {"smiles": "COc1ccc(CC2(CO)CCN(Cc3nc(C(C)C)cs3)CC2)cc1", "Potency": "inconclusive: 39.8 µM [inhibitor, single point]"},
      {"smiles": "C=C(/C=C/c1ccc(N(C)C)cc1)c1nc2ccccc2s1", "Potency": "active: 25.1 µM"},
      {"smiles": "CCc1cc2c(=O)c(-c3ccc4c(c3)OCCO4)coc2c(CN2CCCCC2C)c1O", "note": "(stereo unspecified)", "Potency": "inactive"},
      {"smiles": "Cc1cccc(NC(=S)/N=C(\\N)Nc2nc(C)c3ccc(C)cc3n2)c1", "Potency": "inconclusive: 56.2 µM [inhibitor, partial curve, poor fit]"},
      {"smiles": "CCC1CCCCN1S(=O)(=O)c1ccc(C(=O)N(CCCN(C)C)c2nc3cc4c(cc3s2)OCO4)cc1", "note": "(stereo unspecified)", "Potency": "inconclusive: 89.1 µM [inhibitor, partial curve, poor fit]"},
      {"smiles": "O=C1/C(=C\\c2cccc([N+](=O)[O-])c2O)SC(=S)N1Cc1ccccc1", "Potency": "inconclusive: 89.1 µM [inhibitor, single point]"},
      {"smiles": "COc1ccccc1CC(=O)NCC(c1ccco1)N1CCCCC1", "note": "(stereo unspecified)", "Potency": "inactive"},
      {"smiles": "O=C(CSc1ccccc1C(=O)O)c1ccc([N+](=O)[O-])cc1", "Potency": "inconclusive: 89.1 µM [inhibitor, single point]"},
      {"smiles": "O=C1CCCc2c1cc(C(=O)Nc1ccc(Br)cn1)c(=O)n2-c1ccccc1", "Potency": "inconclusive: 89.1 µM [inhibitor, partial curve, poor fit]"},
      {"smiles": "C(=Nc1ccc(/C=C/c2ccnc3ccccc23)cc1)Nc1ccc(/C=C/c2ccnc3ccccc23)cc1", "Potency": "inconclusive: 44.7 µM [inhibitor, partial curve]"},
      {"smiles": "COc1ccc(NC(=O)c2ccco2)cc1NC(=O)c1ccc(C)c(C)c1", "Potency": "inconclusive: 79.4 µM [inhibitor, partial curve, poor fit]"},
      {"smiles": "Cc1cc(C(=O)N/N=C/c2ccc(O)c(O)c2O)c(C)n1-c1ccccc1", "Potency": "inactive"},
      {"smiles": "O=C(O)c1ccccn1", "Potency": "inconclusive: 79.4 µM [inhibitor, partial curve, poor fit]"},
      {"smiles": "CCCCc1ccc(Nc2cc(C)nc(-n3nc(C)cc3C)n2)cc1", "Potency": "inconclusive: 70.8 µM [inhibitor, partial curve, poor fit]"},
      {"smiles": "CN1CCN(c2ccccc2NC(=O)c2ccc(-c3cccc([N+](=O)[O-])c3)o2)CC1", "Potency": "inconclusive: 28.2 µM [inhibitor, partial curve, poor fit]"},
      {"smiles": "COc1ccc(CC(=O)Nc2ncc([N+](=O)[O-])s2)cc1OC", "Potency": "inconclusive: 50.1 µM [inhibitor, partial curve]"},
      {"smiles": "O=C1c2ccccc2-c2ncnc3c(N4CCOCC4)cc(N4CCOCC4)c1c23", "Potency": "inconclusive: 79.4 µM [inhibitor, partial curve, poor fit]"},
      {"smiles": "Cc1cccc(NC(=O)c2nc[nH]c2C(=O)N[C@@H](CC(C)C)C(=O)OC(C)(C)C)c1", "Potency": "inconclusive: 39.8 µM [inhibitor, partial curve, poor fit]"},
      {"smiles": "CCCCCCCCCCCCCCCC[n+]1ccc(/C=C/c2c[nH]c3ccccc23)cc1", "Potency": "inconclusive: 89.1 µM [inhibitor, single point]"},
      {"smiles": "N=C(N)c1ccc(/C=C/c2ccc(C(=N)N)cc2O)cc1", "Potency": "inconclusive: 28.2 µM [inhibitor, partial curve] and inconclusive: 50.1 µM [inhibitor, partial curve]"},
      {"smiles": "COc1ccc2oc(=O)c(-c3nnc(NCc4ccco4)s3)cc2c1", "Potency": "inconclusive: 79.4 µM [inhibitor, partial curve]"},
      {"smiles": "COc1ccc(Cn2c(-c3ccco3)nc3oc4cc(OC)ccc4c(=O)c3c2=O)cc1", "Potency": "inconclusive: 56.2 µM [inhibitor, partial curve, poor fit]"},
      {"smiles": "Cc1ccc(S(=O)(=O)NCc2ccc(C(=O)N3CCN(c4ccccn4)CC3)cc2)cc1", "Potency": "inconclusive: 89.1 µM [inhibitor, single point]"},
      {"smiles": "CC(C)C(=O)N(c1cc2sc(=O)oc2c2ccccc12)S(=O)(=O)c1cccs1", "Potency": "inconclusive: 56.2 µM [inhibitor, partial curve, poor fit]"},
      {"smiles": "COc1cccc(NS(=O)(=O)c2ccc3[nH]c4c(c3c2)CCCCCC4)c1", "Potency": "inconclusive: 31.6 µM [inhibitor, partial curve, poor fit]"},
      {"smiles": "Cn1c2c(c(=O)n(C)c1=O)C(c1cccc(O)c1)CC(=O)N2", "note": "(stereo unspecified)", "Potency": "inactive"},
      {"smiles": "CCOC(=O)C1=C(CC)OC(N)=C(C#N)C1c1ccc(OC)c(C)c1OC", "note": "(stereo unspecified)", "Potency": "inconclusive: 56.2 µM [inhibitor, partial curve, poor fit]"},
      {"smiles": "CCC1Cc2c(nc(N)c3c(N)nc(N4CCCCC4)c(C#N)c23)O1", "note": "(stereo unspecified)", "Potency": "inconclusive: 22.4 µM [inhibitor, partial curve, poor fit]"},
      {"smiles": "CCOC(=O)c1ccc(NC(=O)CC2Nc3cccc4cccc(c34)NC2=O)cc1", "note": "(stereo unspecified)", "Potency": "inconclusive: 6.31 µM [inhibitor, full curve]"},
      {"smiles": "Cc1cccc(NC(=O)COc2ccc(/C=C\\c3[nH]c(=O)[nH]c(=O)c3[N+](=O)[O-])cc2)c1", "Potency": "active: 44.7 µM"},
      {"smiles": "O=C(O)C1Sc2[nH]c(=O)sc2C2c3ccc(O)cc3OC(=O)C12", "note": "(stereo unspecified)", "Potency": "inconclusive: 79.4 µM [inhibitor, partial curve]"},
      {"smiles": "CCOc1ccccc1NC(=O)Nc1ccc2nc(N3CCN(C)CC3)cc(C)c2c1", "Potency": "inconclusive: 39.8 µM [inhibitor, partial curve]"},
      {"smiles": "CCOc1ccc(-n2ccc(=O)c(C(=O)Nc3ccc(S(=O)(=O)Nc4nccs4)cc3)n2)cc1", "Potency": "inconclusive: 79.4 µM [inhibitor, partial curve, poor fit]"},
      {"smiles": "COc1cc(-c2cc(=O)c3c(O)c(OC)c(OC)c(O)c3o2)ccc1O", "Potency": "inconclusive: 56.2 µM [inhibitor, partial curve, poor fit]"},
      {"smiles": "COc1cc(/C=C2\\CCCc3c2nc2ccccc2c3C(=O)O)cc(OC)c1O", "Potency": "active: 44.7 µM"},
      {"smiles": "CCNC(=S)N(CCc1cccc(C)c1)Cc1cc2cc(OC)c(OC)cc2[nH]c1=O", "Potency": "inconclusive: 50.1 µM [inhibitor, partial curve, poor fit]"},
      {"smiles": "CN1CCCc2cc(/C=C/c3ccnc4ccccc34)ccc21", "Potency": "inconclusive: 70.8 µM [inhibitor, single point]"},
      {"smiles": "COc1ccc(C2CC(=O)N3CN(c4ccc(C)c(Cl)c4)CSC3=C2C#N)cc1OC", "note": "(stereo unspecified)", "Potency": "inconclusive: 3.55 µM [inhibitor, partial curve, poor fit]"}
    ]}
  ]
}
